# Results taken from the supplement of paper PMC8728848.
# This is one part of the list.
# B1: DC-ASGPR S+GEE (Homo sapiens) (protein)
# chain: MTRTYENFQYLENKVKVQGFKNGPLPLQSLLQRLRSGPCHLLLSLGLGLLLLVIICVVGFQNSKFQRDLVTLRTDFSNFTSNTVAEIQALTSQGSSLEETIASLKAEVEGFKQERQAVHSEMLLRVQQLVQDLKKLTCQVATINNNGEEASTEGTCCPVNWVEHQDSCYWFSHSGMSWAEAEKYCQLKNAHLVVINSREEQNFVQKYLGSAYTWMGLSDPEGAWKWVDGTDYATGFQNWKPGQPDDWQGHGLGGGEDCAHFHPDGRWNDDVCQRPYHWVCEAGLGQTSQESH
# Columns and labels:
# Experiment in all cases: glycan array binding signal (z-score within array); higher = stronger binding
# Details in all cases: glycan notation: IUPAC condensed, linker removed
# [1] = target: Gal(b1-4)GlcNAc(b1-2)[Gal(b1-4)GlcNAc(b1-6)]Man(a1-6)[Gal(b1-4)GlcNAc(b1-2)Man(a1-3)]Man(b1-4)GlcNAc(b1-4)[Fuc(a1-6)]GlcNAc
# Summary of the method: (§1)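 Negative Z-scores can be read as non-binding. The Z-score is calculated within each array and then averaged across arrays of one protein sequence at different concentrations or buffers and across linkers. Arrays, 3228 in all, were curated from the Consortium for Functional Glycomics database and kept only where the protein sequence was available.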
# [2] = target: Gal(b1-4)GlcNAc(b1-2)[Gal(b1-4)GlcNAc(b1-6)]Man(a1-6)[GlcNAc(b1-4)][Gal(b1-4)GlcNAc(b1-2)Man(a1-3)]Man(b1-4)GlcNAc(b1-4)GlcNAc
# Summary of the method: as §1
# [3] = target: Gal(b1-4)GlcNAc(b1-2)[Gal(b1-4)GlcNAc(b1-6)]Man(a1-6)[GlcNAc(b1-4)][Gal(b1-4)GlcNAc(b1-2)[Gal(b1-4)GlcNAc(b1-4)]Man(a1-3)]Man(b1-4)GlcNAc(b1-4)[Fuc(a1-6)]GlcNAc
# Summary of the method: as §1
# [4] = target: Gal(b1-4)GlcNAc(b1-3)Gal(b1-3)GalNAc
# Summary of the method: as §1
# [5] = target: Gal(b1-4)GlcNAc(b1-3)Gal(b1-3)GlcNAc
# Summary of the method: as §1
# [6] = target: Gal(b1-4)GlcNAc(b1-3)Gal(b1-4)Glc
# Summary of the method: as §1
# [7] = target: Gal(b1-4)GlcNAc(b1-3)Gal(b1-4)GlcNAc
# Summary of the method: as §1
# [8] = target: Gal(b1-4)GlcNAc(b1-3)Gal(b1-4)GlcNAc(b1-2)Man(a1-3)[Gal(b1-4)GlcNAc(b1-3)Gal(b1-4)GlcNAc(b1-2)Man(a1-6)]Man(b1-4)GlcNAc(b1-4)GlcNAc
# Summary of the method: as §1
# [9] = target: Gal(b1-4)GlcNAc(b1-3)Gal(b1-4)GlcNAc(b1-2)Man(a1-3)[Gal(b1-4)GlcNAc(b1-3)Gal(b1-4)GlcNAc(b1-2)Man(a1-6)]Man(b1-4)GlcNAc(b1-4)[Fuc(a1-6)]GlcNAc
# Summary of the method: as §1
# [10] = target: Gal(b1-4)GlcNAc(b1-3)Gal(b1-4)GlcNAc(b1-2)[Gal(b1-4)GlcNAc(b1-3)Gal(b1-4)GlcNAc(b1-6)]Man(a1-6)[Gal(b1-4)GlcNAc(b1-3)Gal(b1-4)GlcNAc(b1-2)Man(a1-3)]Man(b1-4)GlcNAc(b1-4)GlcNAc
# Summary of the method: as §1
# [11] = target: Gal(b1-4)GlcNAc(b1-3)Gal(b1-4)GlcNAc(b1-2)[Gal(b1-4)GlcNAc(b1-3)Gal(b1-4)GlcNAc(b1-6)]Man(a1-6)[Gal(b1-4)GlcNAc(b1-3)Gal(b1-4)GlcNAc(b1-2)Man(a1-3)]Man(b1-4)GlcNAc(b1-4)[Fuc(a1-6)]GlcNAc
# Summary of the method: as §1
# [12] = target: Gal(b1-4)GlcNAc(b1-3)Gal(b1-4)GlcNAc(b1-3)Gal(b1-4)GlcNAc
# Summary of the method: as §1
# [13] = target: Gal(b1-4)GlcNAc(b1-3)Gal(b1-4)GlcNAc(b1-3)Gal(b1-4)GlcNAc(b1-2)Man(a1-3)[Gal(b1-4)GlcNAc(b1-3)Gal(b1-4)GlcNAc(b1-3)Gal(b1-4)GlcNAc(b1-2)Man(a1-6)]Man(b1-4)GlcNAc(b1-4)GlcNAc
# Summary of the method: as §1
# [14] = target: Gal(b1-4)GlcNAc(b1-3)Gal(b1-4)GlcNAc(b1-3)Gal(b1-4)GlcNAc(b1-2)Man(a1-3)[Gal(b1-4)GlcNAc(b1-3)Gal(b1-4)GlcNAc(b1-3)Gal(b1-4)GlcNAc(b1-2)Man(a1-6)]Man(b1-4)GlcNAc(b1-4)[Fuc(a1-6)]GlcNAc
# Summary of the method: as §1
# [15] = target: Gal(b1-4)GlcNAc(b1-3)Gal(b1-4)GlcNAc(b1-3)Gal(b1-4)GlcNAc(b1-2)[Gal(b1-4)GlcNAc(b1-3)Gal(b1-4)GlcNAc(b1-3)Gal(b1-4)GlcNAc(b1-6)]Man(a1-6)[Gal(b1-4)GlcNAc(b1-3)Gal(b1-4)GlcNAc(b1-3)Gal(b1-4)GlcNAc(b1-2)Man(a1-3)]Man(b1-4)GlcNAc(b1-4)[Fuc(a1-6)]GlcNAc
# Summary of the method: as §1
# [16] = target: Gal(b1-4)GlcNAc(b1-3)Gal(b1-4)GlcNAc(b1-3)Gal(b1-4)GlcNAc(b1-3)Gal(b1-4)GlcNAc(b1-2)Man(a1-3)[Gal(b1-4)GlcNAc(b1-3)Gal(b1-4)GlcNAc(b1-3)Gal(b1-4)GlcNAc(b1-3)Gal(b1-4)GlcNAc(b1-2)Man(a1-6)]Man(b1-4)GlcNAc(b1-4)GlcNAc
# Summary of the method: as §1
# [17] = target: Gal(b1-4)GlcNAc(b1-3)Gal(b1-4)GlcNAc(b1-3)Gal(b1-4)GlcNAc(b1-3)Gal(b1-4)GlcNAc(b1-2)Man(a1-3)[Gal(b1-4)GlcNAc(b1-3)Gal(b1-4)GlcNAc(b1-3)Gal(b1-4)GlcNAc(b1-3)Gal(b1-4)GlcNAc(b1-2)Man(a1-6)]Man(b1-4)GlcNAc(b1-4)[Fuc(a1-6)]GlcNAc
# Summary of the method: as §1
# [18] = target: Gal(b1-4)GlcNAc(b1-3)Gal(b1-4)GlcNAc(b1-3)Gal(b1-4)GlcNAc(b1-3)Gal(b1-4)GlcNAc(b1-2)[Gal(b1-4)GlcNAc(b1-3)Gal(b1-4)GlcNAc(b1-3)Gal(b1-4)GlcNAc(b1-3)Gal(b1-4)GlcNAc(b1-6)]Man(a1-6)[Gal(b1-4)GlcNAc(b1-3)Gal(b1-4)GlcNAc(b1-3)Gal(b1-4)GlcNAc(b1-3)Gal(b1-4)GlcNAc(b1-2)Man(a1-3)]Man(b1-4)GlcNAc(b1-4)[Fuc(a1-6)]GlcNAc
# Summary of the method: as §1
# [19] = target: Gal(b1-4)GlcNAc(b1-3)Gal(b1-4)GlcNAc(b1-3)Gal(b1-4)GlcNAc(b1-3)Gal(b1-4)GlcNAc(b1-3)Gal(b1-4)GlcNAc(b1-2)Man(a1-3)[Gal(b1-4)GlcNAc(b1-3)Gal(b1-4)GlcNAc(b1-3)Gal(b1-4)GlcNAc(b1-3)Gal(b1-4)GlcNAc(b1-3)Gal(b1-4)GlcNAc(b1-2)Man(a1-6)]Man(b1-4)GlcNAc(b1-4)GlcNAc
# Summary of the method: as §1
# [20] = target: Gal(b1-4)GlcNAc(b1-3)Gal(b1-4)GlcNAc(b1-3)Gal(b1-4)GlcNAc(b1-3)Gal(b1-4)GlcNAc(b1-3)Gal(b1-4)GlcNAc(b1-2)Man(a1-3)[Gal(b1-4)GlcNAc(b1-3)Gal(b1-4)GlcNAc(b1-3)Gal(b1-4)GlcNAc(b1-3)Gal(b1-4)GlcNAc(b1-3)Gal(b1-4)GlcNAc(b1-2)Man(a1-6)]Man(b1-4)GlcNAc(b1-4)[Fuc(a1-6)]GlcNAc
# Summary of the method: as §1
# [21] = target: Gal(b1-4)GlcNAc(b1-3)Gal(b1-4)GlcNAc(b1-3)Gal(b1-4)GlcNAc(b1-3)Gal(b1-4)GlcNAc(b1-3)Gal(b1-4)GlcNAc(b1-2)[Gal(b1-4)GlcNAc(b1-3)Gal(b1-4)GlcNAc(b1-3)Gal(b1-4)GlcNAc(b1-3)Gal(b1-4)GlcNAc(b1-3)Gal(b1-4)GlcNAc(b1-6)]Man(a1-6)[Gal(b1-4)GlcNAc(b1-3)Gal(b1-4)GlcNAc(b1-3)Gal(b1-4)GlcNAc(b1-3)Gal(b1-4)GlcNAc(b1-3)Gal(b1-4)GlcNAc(b1-2)Man(a1-3)]Man(b1-4)GlcNAc(b1-4)[Fuc(a1-6)]GlcNAc
# Summary of the method: as §1
# [22] = target: Gal(b1-4)GlcNAc(b1-3)Gal(b1-4)GlcNAc(b1-3)Gal(b1-4)GlcNAc(b1-3)Gal(b1-4)GlcNAc(b1-3)Gal(b1-4)GlcNAc(b1-3)Gal(b1-4)GlcNAc(b1-2)Man(a1-3)[Gal(b1-4)GlcNAc(b1-3)Gal(b1-4)GlcNAc(b1-3)Gal(b1-4)GlcNAc(b1-3)Gal(b1-4)GlcNAc(b1-3)Gal(b1-4)GlcNAc(b1-3)Gal(b1-4)GlcNAc(b1-2)Man(a1-6)]Man(b1-4)GlcNAc(b1-4)GlcNAc
# Summary of the method: as §1
# [23] = target: Gal(b1-4)GlcNAc(b1-3)Gal(b1-4)GlcNAc(b1-3)GalNAc
# Summary of the method: as §1
# [24] = target: Gal(b1-4)GlcNAc(b1-3)Gal(b1-4)GlcNAc(b1-3)[Gal(b1-4)GlcNAc(b1-3)Gal(b1-4)GlcNAc(b1-6)]GalNAc
# Summary of the method: as §1
# [25] = target: Gal(b1-4)GlcNAc(b1-3)Gal(b1-4)GlcNAc(b1-6)[Gal(b1-3)]GalNAc
# Summary of the method: as §1
# [26] = target: Gal(b1-4)GlcNAc(b1-3)Gal(b1-4)[Fuc(a1-3)]GlcNAc(b1-3)Gal(b1-4)[Fuc(a1-3)]GlcNAc
# Summary of the method: as §1
# [27] = target: Gal(b1-4)GlcNAc(b1-3)GalNAc
# Summary of the method: as §1
# [28] = target: Gal(b1-4)GlcNAc(b1-3)[Fuc(a1-3)GlcNAc(b1-6)]Gal(b1-4)Glc
# Summary of the method: as §1
# [29] = target: Gal(b1-4)GlcNAc(b1-3)[Gal(b1-4)GlcNAc(b1-6)]Gal(b1-4)GlcNAc
# Summary of the method: as §1
# [30] = target: Gal(b1-4)GlcNAc(b1-3)[GlcNAc(b1-6)]Gal(b1-4)GlcNAc
# Summary of the method: as §1
# [31] = target: Gal(b1-4)GlcNAc(b1-6)Gal(b1-4)GlcNAc
# Summary of the method: as §1
# [32] = target: Gal(b1-4)GlcNAc(b1-6)GalNAc
# Summary of the method: as §1
# [33] = target: Gal(b1-4)GlcNAc(b1-6)[Gal(b1-3)]GalNAc
# Summary of the method: as §1
# [34] = target: Gal(b1-4)GlcNAc(b1-6)[Gal(b1-4)GlcNAc(b1-3)]GalNAc
# Summary of the method: as §1
# [35] = target: Gal(b1-4)GlcNAc6P
# Summary of the method: as §1
# [36] = target: Gal(b1-6)Gal
# Summary of the method: as §1
# [37] = target: Gal3S(b1-3)GalNAc
# Summary of the method: as §1
# [38] = target: Gal3S(b1-3)GlcNAc
# Summary of the method: as §1
binder,measurement,setting,value
B1,glycan array binding signal (z-score),[1],-0.329
same,glycan array binding signal (z-score),[2],-0.274
same,glycan array binding signal (z-score),[3],-0.359
same,glycan array binding signal (z-score),[4],-0.649
same,glycan array binding signal (z-score),[5],-0.324
same,glycan array binding signal (z-score),[6],-0.303
same,glycan array binding signal (z-score),[7],-0.268
same,glycan array binding signal (z-score),[8],-0.28
same,glycan array binding signal (z-score),[9],-0.417
same,glycan array binding signal (z-score),[10],0.176
same,glycan array binding signal (z-score),[11],-0.301
same,glycan array binding signal (z-score),[12],-0.321
same,glycan array binding signal (z-score),[13],-0.277
same,glycan array binding signal (z-score),[14],-0.481
same,glycan array binding signal (z-score),[15],-0.356
same,glycan array binding signal (z-score),[16],-0.235
same,glycan array binding signal (z-score),[17],-0.335
same,glycan array binding signal (z-score),[18],-0.145
same,glycan array binding signal (z-score),[19],-0.04
same,glycan array binding signal (z-score),[20],-0.153
same,glycan array binding signal (z-score),[21],0.027
same,glycan array binding signal (z-score),[22],-0.167
same,glycan array binding signal (z-score),[23],-0.337
same,glycan array binding signal (z-score),[24],-0.314
same,glycan array binding signal (z-score),[25],-0.312
same,glycan array binding signal (z-score),[26],-0.159
same,glycan array binding signal (z-score),[27],-0.316
same,glycan array binding signal (z-score),[28],-0.364
same,glycan array binding signal (z-score),[29],-0.354
same,glycan array binding signal (z-score),[30],-0.368
same,glycan array binding signal (z-score),[31],-0.354
same,glycan array binding signal (z-score),[32],3.6
same,glycan array binding signal (z-score),[33],0.136
same,glycan array binding signal (z-score),[34],-0.242
same,glycan array binding signal (z-score),[35],-0.349
same,glycan array binding signal (z-score),[36],-0.38
same,glycan array binding signal (z-score),[37],-0.306
same,glycan array binding signal (z-score),[38],-0.749
